Among all 48,000 compounds or so, about 450 (0.94%) were called active. Not shown: some 19% with an inconclusive outcome. Calls come from the whole dose curve; as a rule, active = well fitted inhibition curve with a large enough effect; inconclusive = small, poorly fitted or top-dose-only effect; inactive = no such curve, though single readings can be large or run the other way. The list shows a part of the results.

This test in a line: Primary qHTS for Identification of Small Molecule Inhibitors of Huntingtin Promoter Activity. Note: nearly all actives have a fitted effect of over 50% in size. The conditions noted are these: HEK293 HTT promoter firefly luciferase reporter (activity 0% = vehicle and -100% = no light), 24 h; series mostly up to 57.5 µM; activity change, negative = inhibition: at the top concentration. The gist of the method: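 Luminescence was read after Dual-Glo reagent and a 10 min room-temperature incubation. Values were normalized to vehicle (0% activity) and zero RLU (-100% activity). Reporter HEK293 cells had been exposed to compounds (up to 57.5 uM final) for 24 h.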
On the technique in general: qHTS replaces the single test concentration by a dilution series.
With `CCOC(=O)c1ccc(NC2SC(=O)N(Cc3cccc(C(=O)O)c3)C2=O)cc1` (stereo not drawn), the “activity change, negative = inhibition” value is inactive: 51.8%. Under `COc1cc2nc(SCC(=O)Nc3ccccc3F)n3nc(-c4ccccc4)nc3c2cc1OC` stands inactive: -2.16%; under `CCOc1ccc(Cn2c(CNS(=O)(=O)c3cccc(Cl)c3)nc3cccnc32)cc1`, inactive: -18%; under `CCc1ccc(NC(=O)CSc2nc3c(sc4ccccc43)c(=O)n2CCCOC(C)C)cc1`, inactive: -11.4%. As to `COc1ccccc1C(=O)N1CCN(Cc2cc(=O)oc3cc(C)ccc23)CC1`, the “activity change, negative = inhibition” value was inactive: -15.8%. Under `COc1ccc(-c2nc3ccc(NS(=O)(=O)c4ccc(Cl)cc4)cc3o2)cc1` stands inactive: -20.4%. Turning to `Cc1ccc(CNC(=O)c2ccc(CSCc3ccccc3C)o2)cc1`, the “activity change, negative = inhibition” value was inactive: -16.3%. In the case of `CCCCN(CC)C(=O)Cn1ncc2c3ccccc3n(CCC)c2c1=O` it was inactive: -12.7%; in that of `COc1ccc(-n2cc(C(=O)NCc3ccccc3Cl)c3ccccc3c2=O)cc1`, inactive: -8.35%; in that of `Cn1c(=O)[nH]c2cc(-c3noc(-c4cccc(Cl)c4)n3)ccc21`, inactive: 3.12%. In the case of `CCCNC(=O)Cn1nc(-c2ccc(F)cc2)c2cnc3ccc(F)cc3c21` it was inactive: -2.01%; in that of `CCOc1cccc(C(=O)N(Cc2ccc(CC)cc2)C2CCS(=O)(=O)C2)c1` (stereo not drawn), inactive: -15.7%; in that of `CCC(C)NC(=O)c1cccc(NC(=O)c2nsc3ccccc23)c1` (stereo not drawn), inactive: 45.8%. Under `CC(=O)C1=C(c2ccc(Cl)cc2)N(C(C)=O)n2c(nnc2C2CCCCC2)S1` stands inactive: -38.8%; under `Cc1ccc(Cl)cc1N(C)C(=O)c1cn(C2CCCCC2)c(=O)c2c1c1ccccc1n2C`, inactive: -3.97%; under `Cc1ccc2c(c1)N(CCC(=O)NCc1ccccc1Cl)C(=O)CO2`, inactive: -13.4%.

Consider `O=c1c2oc3ccccc3c2n(Cc2ccccc2F)c(=O)n1Cc1ccccc1`, for which the “activity change, negative = inhibition” value is inactive: -22.4%. Under `Cc1ccc2onc(CC(=O)Nc3ccc(C(C)C)cc3)c2c1` stands inactive: -14.9%; under `COc1cccc(CNC(=O)c2cc3c(=O)oc4ccc(C)cc4c3s2)c1`, inactive: 0.606%. In the case of `COc1ccc(-c2nnc(SCc3cccc(Cl)c3)o2)cc1` it was inactive: -8.73%.

As for `CC(=O)N1CCC(N(Cc2ccc(C)o2)C(=O)Nc2ccc(C)cc2)CC1`, the “activity change, negative = inhibition” value was inactive: 2.93%. In the case of `Cn1c(=O)[nH]c(=O)c2c1nc(NCCc1ccccc1)n2Cc1ccc(F)cc1` it was inactive: -19.7%; in that of `Cc1cc(NC(=O)Nc2nnc(N(C)Cc3ccccc3)s2)ccc1Br`, inactive: -7.75%.

With `Cc1ccc(O)c(NC(=O)c2cc(-c3ccccc3O)no2)c1`, the “activity change, negative = inhibition” value is inactive: 40.8%. Under `CCOc1ccc2nc(NC(=O)c3nc(SC)ncc3Cl)sc2c1` stands inactive: 0.118%. Under `CCOc1ccccc1NC(=O)Cc1noc2ccc(C)cc12` stands inactive: 1.56%; under `COc1ccc2nc(N(Cc3cccnc3)C(=O)C3CCCCC3)sc2c1`, inactive: -24.2%. Under `COc1cccc(C2C(C(=O)Nc3ccc(C)cc3C)=C(C)Nc3nc4ccccc4n32)c1OC` (stereo not drawn) stands inactive: -6.14%.

Turning to `CC1(C)C(=O)N(CC(=O)Nc2ccc(Br)cc2F)c2ccccc21`, the “activity change, negative = inhibition” value is inactive: -34%. For the molecule `CCOC(=O)c1cc(S(=O)(=O)N2CCN(c3ccccc3F)CC2)[nH]n1`, the “activity change, negative = inhibition” value was inactive: -8.85%. In the case of `CC(NC(=O)C1CCN(c2nc3ccccc3nc2C(F)(F)F)CC1)c1ccccc1` (stereo not drawn) it was inactive: -39.2%; in that of `CCCCNC(=O)c1cccc(-n2c(C)nc3cccnc32)c1`, inactive: -15.5%; in that of `Fc1ccc2c(c1)-c1nc(-c3ccccc3)cc(-c3ccccc3)c1CO2`, inactive: -6.13%. Under `CCOc1cc(C(=O)N2CCn3c4c(c5cc(C)ccc53)CCCC42)cc(OCC)c1OCC` (stereo not drawn) stands inactive: -0.442%. `Cc1cccc(N(C)c2ccc3cc(S(=O)(=O)N4CCCC4)ccc3n2)c1`: the “activity change, negative = inhibition” value was inactive: 1.73%.

Turning to `Cc1ccc2c(c1)c(N1CCCC1=O)c(C(=O)Nc1ccc(F)cc1F)n2C`, the “activity change, negative = inhibition” value was inactive: -31.6%.

Turning to `CCC(=O)N1CCc2cc(S(=O)(=O)NC(Cc3ccccc3)C(=O)Nc3cccc(OC)c3)ccc21` (stereo not drawn), the “activity change, negative = inhibition” value was inactive: -11%.

In the case of `Cc1ccc(-c2nnc3c4ccccc4c(C)nn23)cc1NC(=O)c1ccccc1Cl`, the “activity change, negative = inhibition” value is inactive: -1.26%. In the case of `Cc1ccc(S(=O)(=O)c2nnn3c2nc(N2CCCC2)c2sccc23)cc1` it was inactive: -3.86%.

With `COc1cccc(N2CCN(c3ncnc4onc(-c5ccc(F)cc5)c34)CC2)c1`, the “activity change, negative = inhibition” value was inactive: 1.69%. Under `Cc1ccc(C)c(NC(=O)CSC2=Nc3ccccc3N=C(c3ccc(F)cc3)C2)c1` stands inactive: -1.3%; under `CCOC(=O)c1cc(S(=O)(=O)N2CCN(c3ccc(C)cc3C)CC2)[nH]n1`, inactive: -1.71%; under `O=C(CCCCCn1c(=O)[nH]c2ccccc2c1=O)NCc1ccccc1`, inactive: 5.11%. For `COC(=O)c1ccc(O)c2ncc(-c3ccc(C(=O)N4CCN(C)CC4)cc3)cc12`, the “activity change, negative = inhibition” value is inactive: -16.9%. Under `CN(C)c1ccc(NC(=O)Cn2cc(S(=O)(=O)Cc3cccc(Cl)c3)c3ccccc32)cc1` stands inactive: -28.6%; under `CC(=O)c1cc(-c2ccccc2)n(CCC(=O)Nc2ccc(C)cc2C)c1C`, inactive: -24.3%. Turning to `COc1ccc(N2CC(NC(=O)c3cc4ccccc4o3)CC2=O)cc1` (stereo not drawn), the “activity change, negative = inhibition” value is inactive: 3.87%. In the case of `Cc1cc(C(=O)NCc2ccc(Cl)cc2)c2c(C)nn(-c3ccccc3)c2n1` it was inactive: 0.229%; in that of `COC(=O)c1c(NC(=O)Nc2ccc(Cl)cc2)sc(C)c1C`, inactive: -28.4%; in that of `COc1ccccc1CNC(=O)CCC1N=C2c3ccccc3N=C(SCc3ccc(C)cc3)N2C1=O` (stereo not drawn), inactive: 17.6%. In the case of `Cc1ccc2c(c1)N(C(=O)Nc1cccc(C)c1C)CCO2` it was inactive: -22.8%; in that of `CS(=O)(=O)N1CCc2cc(C(=O)N3CCN(c4ccccc4)CC3)ccc21`, inactive: -20.2%.

For `CCCc1nnc(NC(=O)c2cc(=O)c3cc(Cl)ccc3o2)s1`, the “activity change, negative = inhibition” value was inactive: 4.53%. As for `COc1ccccc1NC(=O)NCc1cccn1Cc1ccccc1`, the “activity change, negative = inhibition” value was inactive: 3.2%. `Cc1cc(Br)ccc1NC(=O)c1ccc(NS(=O)(=O)c2c(C)noc2C)cc1`: the “activity change, negative = inhibition” value was inactive: -5.22%. In the case of `COc1ccc(NC(=O)Cn2cnc3ccc(S(=O)(=O)N4CCC(C)CC4)cc3c2=O)cc1OC` it was inactive: -21.5%; in that of `COc1ccc(-c2cnn3c(C)cc(C)nc23)cc1OC`, inactive: 6.64%. In the case of `CCOc1ccc(-c2nc(SCC(=O)NC3CCCC3)c(-c3ccccc3)[nH]2)cc1OC` it was inactive: -10.4%; in that of `O=C(CSc1nc(-c2cccs2)nc2cc(=O)[nH]n12)Nc1ccccc1F`, inactive: -3.01%; in that of `CCCOc1ccc(C(=O)Nc2ccc(Cl)c(-c3nc4ncccc4o3)c2)cc1`, inactive: 5.54%. Under `CCOc1ccc(CCNC(=O)CSc2cc(=O)n(C)c3cc(Cl)ccc23)cc1OCC` stands inactive: -16.2%; under `CSc1ccc(CCNC(=O)CN2C(=O)c3cccnc3Oc3ccc(Cl)cc32)cc1`, inactive: -13.1%. Regarding `Nc1c(-c2nc(-c3ccc4c(c3)OCO4)cs2)c2ccccn2c1C(=O)c1ccccc1`, the “activity change, negative = inhibition” value was inactive: -21.3%.

As to `CCC(C(=O)Nc1ccccc1OC)n1nc(C)c2sc3ccccc3c2c1=O` (stereo not drawn), the “activity change, negative = inhibition” value is inactive: -27.6%.

As to `Cc1ccc(C)c(OCC(=O)Nc2ccc(S(=O)(=O)Nc3onc(C)c3C)cc2)c1C`, the “activity change, negative = inhibition” value was inactive: -6.14%.

For `Cc1ccc(NC(=O)c2c(C)oc3nc(C)nc(N4CCCC4)c23)c(C)c1`, the “activity change, negative = inhibition” value was inactive: -3.98%. In the case of `COc1ccc(NC(=O)c2c(NCc3sccc3C)sc3c2CCCCC3)c(OC)c1` it was inactive: -24.1%; in that of `CCOc1ccc(CCNC(=O)c2ccc(CS(=O)Cc3cccc(Cl)c3)o2)cc1` (stereo not drawn), inactive: -21.9%.

Consider `COC(=O)c1ccc(NC(=O)CSc2ncc3c(n2)-c2cc(Cl)ccc2N(Cc2ccccc2)S3(=O)=O)cc1`, for which the “activity change, negative = inhibition” value was inactive: -21.6%.

As for `O=S(=O)(c1ccc(F)cc1)N(Cc1nc(-c2ccc(Cl)cc2)no1)C1CCCCC1`, the “activity change, negative = inhibition” value is inactive: -29.9%.

As to `Cc1c(NC(=O)c2cccc3c(Cl)cccc23)cccc1-c1nc2ccccc2o1`, the “activity change, negative = inhibition” value is inactive: -30.3%.

Regarding `O=C(CCS(=O)(=O)c1cc(Br)cc2c1N(C(=O)C1CC1)CC2)NCc1ccccc1Cl`, the “activity change, negative = inhibition” value is inactive: -4.42%. In the case of `COC(=O)c1sccc1S(=O)(=O)N(CC(=O)Nc1c(C)cccc1C)c1ccc(C)c(C)c1` it was inactive: -17.5%. In the case of `CCC(C(=O)Nc1cc(F)ccc1F)n1nc(-c2cc(C)ccc2C)ccc1=O` (stereo not drawn) it was inactive: -26%. Under `CCOC(=O)N1CCc2c(sc3c2c(=O)n(Cc2ccccc2)c(=O)n3CC(=O)Nc2ccc(C)c(C)c2)C1` stands inactive: -5.21%; under `Cc1ccc(NC(=O)CCC(=O)N2CCSc3ccccc32)cc1Cl`, inactive: -32.8%. On to `COC(=O)C(C)n1nnc2sc(-c3ccccc3)cc2c1=O` (stereo not drawn), for which the “activity change, negative = inhibition” value was inactive: 23.5%.

As for `Cc1c(Cl)cccc1NC(=O)Nc1nnc(N(C)Cc2ccccc2)s1`, the “activity change, negative = inhibition” value is inactive: -5.55%. Consider `Cc1c(N(C)C)c(=O)n(-c2ccccc2)n1C`, for which the “activity change, negative = inhibition” value was inactive: 20%.

With `CC1=C(C(=O)NCc2ccccc2C)C2(CCCCC2)OC1=O`, the “activity change, negative = inhibition” value is inactive: -0.439%. Under `CC(=O)c1ccc(NC(=O)Cn2cc(S(=O)(=O)Cc3ccccc3Cl)c3ccccc32)cc1` stands inactive: -24.5%. For `Cn1c(=O)c2c(nc(Oc3ccccc3)n2Cc2c(Cl)cccc2Cl)n(C)c1=O`, the “activity change, negative = inhibition” value is inactive: -4.29%. Under `COc1ccc(N(CC(=O)Nc2cc(C)ccc2C)S(=O)(=O)c2ccc(OC)c(OC)c2)cc1` stands inactive: -49.8%; under `COCCCNC(=O)CSc1nc2cc3c(cc2c(=O)n1CCCC(=O)NCc1ccc(OC)cc1)OCO3`, inactive: -13.1%; under `O=C(Nc1ccc(F)cc1F)c1ccc2c(O)c(S(=O)(=O)c3ccc(Cl)cc3)c(=O)[nH]c2c1`, inactive: -3.7%. Under `CCOc1ccc(NC(=O)CN2C(=O)COc3ccc(S(=O)(=O)NC4CCCC4)cc32)cc1` stands inactive: -19.2%.

As to `CCc1ccc(C2c3c(oc4ccc(F)cc4c3=O)C(=O)N2c2nc(C)c(C(=O)OC)s2)cc1` (stereo not drawn), the “activity change, negative = inhibition” value was inactive: -9.1%.

In the case of `O=C(Nc1c(C(=O)O)oc2ccccc12)c1ccc(C(F)(F)F)cc1`, the “activity change, negative = inhibition” value was inactive: -22.1%. As to `O=C(CSc1cn(CC(=O)N2CCOCC2)c2ccccc12)Nc1ccccc1`, the “activity change, negative = inhibition” value was inactive: -20.4%. On to `O=C(COCc1cc(-c2ccc3c(c2)OCO3)on1)NCc1ccccc1Cl`, for which the “activity change, negative = inhibition” value was inactive: -3.37%.

Regarding `NC(=O)c1ccc2[nH]ccc2c1`, the “activity change, negative = inhibition” value is inactive: -3.44%. In the case of `COc1ccccc1OCC(=O)NCc1nc(-c2ccc(Cl)cc2)no1` it was inactive: -16.9%; in that of `CCOc1ccc(C(=O)Nc2ccc(S(=O)(=O)Nc3nc(C)cc(C)n3)cc2)cc1OC`, inactive: -2.48%. Under `Cc1ccccc1Cc1c(C)nc2nc(SCC(=O)NCCc3ccc(Cl)cc3)nn2c1C` stands inactive: -13.7%. Under `CC1=C(c2ccc(C)c(C)c2)S(=O)(=O)N(Cc2ccc(C(=O)NC(C)c3ccccc3)cc2)C1=O` (stereo not drawn) stands inactive: -31%; under `O=C(COc1ccccc1)Nc1ccccc1OCc1cc(=O)n2ccccc2n1`, inactive: 3.03%.

In the case of `COc1ccc(CNC(=O)c2ccc(CS(=O)(=O)c3ccccc3OC)o2)cc1`, the “activity change, negative = inhibition” value was inactive: -12.6%. Under `Cc1ccc(C)c(-c2[nH]c3c(c2-c2c(-n4cccc4)n(C)c(=O)[nH]c2=O)c(=O)[nH]c(=O)n3C)c1` stands inactive: -10%.

These data come from PubChem BioAssay AID1508623 (National Center for Advancing Translational Sciences (NCATS), 2021).
